The results in this text go back to patent US20220002403A1.

This assay addresses human ILT4 haplotype 5 expressed on mouse 3A9 T cells (human), Q8N423. The assay can be described thus: cell-based or functional assay.

human ILT4 haplotype 5 expressed on mouse 3A9 T cells (human), Q8N423, sequence (Q8N423 other isoform, or with tags, fused parts or gaps): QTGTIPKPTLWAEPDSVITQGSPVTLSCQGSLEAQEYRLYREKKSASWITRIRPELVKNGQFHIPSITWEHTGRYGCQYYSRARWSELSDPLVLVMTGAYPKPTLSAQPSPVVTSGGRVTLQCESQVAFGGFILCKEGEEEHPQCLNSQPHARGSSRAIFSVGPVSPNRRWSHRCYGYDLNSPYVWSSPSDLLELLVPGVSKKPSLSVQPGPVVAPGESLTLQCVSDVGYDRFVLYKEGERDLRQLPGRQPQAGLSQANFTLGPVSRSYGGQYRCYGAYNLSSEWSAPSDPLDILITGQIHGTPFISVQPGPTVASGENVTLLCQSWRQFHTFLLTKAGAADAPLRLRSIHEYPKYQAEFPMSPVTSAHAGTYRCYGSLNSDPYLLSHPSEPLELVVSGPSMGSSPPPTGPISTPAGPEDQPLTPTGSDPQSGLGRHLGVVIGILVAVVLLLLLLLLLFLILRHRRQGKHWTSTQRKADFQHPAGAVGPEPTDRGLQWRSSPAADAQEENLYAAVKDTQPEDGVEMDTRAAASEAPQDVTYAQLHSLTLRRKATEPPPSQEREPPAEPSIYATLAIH

B1: 3G7 (antibody)
heavy: EVQLVESGGGVVQPGRSLRLSCAASGFTFSSYAMHWVRQAPGKGLEWVAVISYDGSNKYYADSVKGRFTISRDNSKNTLYLQMNSLRAEDTAVYYCARVGEWIQLWSPFDYWGQGTLVTVSSASTKGPSVFPLAPCSRSTSESTAALGCLVKDYFPEPVTVSWNSGALTSGVHTFPAVLQSSGLYSLSSVVTVPSSSLGTKTYTCNVDHKPSNTKVDKRV[human IgG4 Fc with S228P (EU numbers) not spelt out]
light: DIQMTQSPSSVSASVGDRVTITCRASQGISSWLAWYQQKPGKAPKFLIYAASSLQSGVPSKFSGSGSGTDFTLTISSLQPEDFATYYCQQYNSYPPTFGGGTKVEIKRTVAAPSVFIFPPSDEQLKSGTASVVCLLNNFYPREAKVQWKVDNALQSGNSQESVTEQDSKDSTYSLSSTLTLSKADYEKHKVYACEVTHQGLSSPVTKSFNRGEC
B1 came in with an EC50 (IL-2 Repression Assay: rescue of IL-2 release from anti-CD3 stimulated ILT4 3A9 T cell transfectants, ELISA) of 0.26 µg/mL.
